Measurements: the supplement of paper PMC9433436
± gives the standard deviation of the averaged measurements. In all, about 4,100 sequences were measured (“relative kcat/Km (krel) vs genomic leader AAAGAU”: median about 1.7, highest 2% from about 6.5 on). This is a selection; strong and weak results do not stand in their true shares.

Target: T1, E. coli RNase P holoenzyme (M1 P RNA + rnpA protein) (UniProt P0A7Y8)
T1 sequence: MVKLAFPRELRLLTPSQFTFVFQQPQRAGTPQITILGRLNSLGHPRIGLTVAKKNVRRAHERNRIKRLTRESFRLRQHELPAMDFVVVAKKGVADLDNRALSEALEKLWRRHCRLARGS
Assay: relative kcat/Km (krel) vs genomic leader AAAGAU (relative (reference leader = 1)); higher = faster RNase P cleavage
Experimental: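 HTS-Kin: a pool of ptRNA-Met (21C construct) with all 4096 combinations of 5' leader nucleotides N(-6) to N(-1) was processed in vitro by E. coli RNase P (P RNA + rnpA/C5 protein) under multiple-turnover conditions at 37 C, pH 8, 17.5 mM MgCl2. Residual substrate was Illumina-sequenced at several fractions reacted, and relative kcat/Km (krel) was computed by internal competition kinetics, calibrated to the genomic leader (AAAGAU = 1). The listed hexamer is the varied N(-6)..N(-1) leader (DNA letters), and it sits between a fixed 5' stem-loop flank (GCAUGCACGAAAGUGCGUGCUAUGAA) and the mature tRNA-Met starting GGCUACGUAGCUCAGUUGG. Two technical replicates are averaged.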

[1] = fraction of substrate reacted: ~9-10% (9.79% repeat 1, 9.1% repeat 2)
[2] = fraction of substrate reacted: ~13-16% (15.68% repeat 1, 13.17% repeat 2)
[3] = fraction of substrate reacted: ~26-29% (28.66% repeat 1, 26.4% repeat 2)

| Sequence | relative kcat/Km [1] | relative kcat/Km [2] | relative kcat/Km [3] |
| --- | --- | --- | --- |
| ACCGTC | 2.81 ± 0.91 | 2.48 ± 0.27 | 3.86 ± 1.3 |
| AACATG |  |  | 1.71 ± 0.03 |
| CGCATA | 1.98 ± 1.9 | 1.79 ± 0.48 | 3.42 ± 0.82 |
| AGAAGA | 1.99 ± 0.66 | 2.47 ± 0.38 | 3.9 ± 1.7 |
| GAGCAG |  | 0.164 ± 0.047 | 1.27 ± 0.062 |
| CACAGT |  |  | 1.95 ± 1.9 |
| ACTCGT |  |  | 2.02 ± 1.7 |
| AGGGAA | 0.824 ± 0.22 | 1.38 ± 0.58 | 1.32 ± 0.52 |
| TCCCCA | 1.8 ± 0.75 | 2.78 ± 0.29 | 3.93 ± 1.5 |
| GCATGA | 1.91 ± 0.28 | 1.07 ± 0.63 | 2.21 ± 0.69 |
| TGAAAC | 2.95 ± 0.82 | 3.36 ± 0.47 | 3.84 ± 1.1 |
| GGTCCA |  | 0.644 ± 0.12 | 0.616 ± 0.12 |
| TTGACA | 1.6 ± 0.66 | 1.76 ± 0.59 | 2.5 ± 0.96 |
| CTAACA | 2.23 ± 1.2 | 0.934 ± 0.91 | 1.48 ± 0.23 |
| CTTCAC | 4.29 ± 0.98 | 4.25 ± 0.77 | 6.27 ± 2.5 |
| CCATCA | 1.63 ± 0.58 | 1.19 ± 0.24 | 2.09 ± 0.084 |
| TCCCTA | 3.22 ± 1.7 | 3.63 ± 0.34 | 4.34 ± 1.6 |
| GGCGTA | 1.37 ± 0.13 | 1.04 ± 0.12 | 1.84 ± 0.65 |
| ACCAAG |  | 0.763 ± 0.21 | 2.7 ± 0.17 |
| AAGACC | 1.93 ± 0.86 | 1.66 ± 0.33 | 1.17 ± 0.3 |
| TCCCGT |  |  | 1.86 ± 0.041 |
| CGATAT | 3.51 ± 0.4 | 5.17 ± 2.6 | 6.68 ± 3 |

| Sequence | relative kcat/Km [1] | relative kcat/Km [2] | relative kcat/Km [3] |
| --- | --- | --- | --- |
| TGTCGA | 1.36 ± 0.56 | 3.38 ± 1.4 | 5.15 ± 1.8 |
| AGAATT | 2.18 ± 0.14 | 2.64 ± 0.62 | 3.39 ± 1.4 |
| CAGTTT | 2.13 ± 0.89 | 2.47 ± 0.055 | 3.36 ± 1.4 |
| ACGCTA | 1.05 ± 0.29 | 0.572 ± 0.17 | 1.74 ± 0.51 |
| GGTATT | 1.13 ± 0.4 | 1.56 ± 0.34 | 2.38 ± 1.3 |
| CTCGTT | 1.65 ± 0.2 | 2.23 ± 0.54 | 2.84 ± 1.1 |
| TTATTA | 2.64 ± 1.1 | 2.76 ± 0.31 | 3.84 ± 1.4 |
| AAACTG |  |  | 0.665 ± 0.063 |
| CAGAGG |  |  | 0.599 ± 0.16 |
| AAATAG |  | 0.682 ± 0.34 | 2.3 ± 0.061 |
| CGAAAT | 2.41 ± 0.32 | 2.34 ± 0.61 | 3.43 ± 1.1 |
| AGAATA | 2.57 ± 1.8 | 2.38 ± 0.23 | 2.95 ± 0.74 |
| AAAAGA | 0.711 ± 0.38 | 1.35 ± 0.16 | 1.71 ± 0.32 |
| ACACAC | 2.52 ± 0.29 | 2.93 ± 0.19 | 4.35 ± 1.7 |
| TCACGC | 2.24 ± 0.65 | 3 ± 0.93 | 4.05 ± 1.5 |
| GACTAA | 4.15 ± 1.9 | 5.64 ± 1.3 | 8.21 ± 3.3 |
| CCTCCA | 0.975 ± 0.64 | 1.57 ± 0.89 | 1.45 ± 0.32 |
| ATTTCC | 2.26 ± 0.4 | 1.937 ± 0.0092 | 2.73 ± 0.72 |
| GAACTG |  |  | 0.897 ± 0.51 |
| CTCCAG | 2.81 ± 1.9 | 2.34 ± 0.026 | 4.6 ± 1.3 |
| AACCAC | 2.99 ± 2 | 2.74 ± 0.52 | 3.88 ± 1 |
| CTTAAC | 2.53 ± 1.3 | 2.52 ± 0.82 | 3.93 ± 1.3 |

| Sequence | relative kcat/Km [1] | relative kcat/Km [2] | relative kcat/Km [3] |
| --- | --- | --- | --- |
| CGTCAT | 2.843 ± 0.013 | 4.98 ± 1.9 | 6.96 ± 3.1 |
| TGGTGG | 0.0872 ± 0.032 |  | 1.21 ± 0.9 |
| AAAGCC | 0.793 ± 0.042 | 1.32 ± 0.27 | 1.39 ± 0.07 |
| CAACCA | 0.968 ± 0.62 | 0.886 ± 0.018 | 0.881 ± 0.39 |
| CCTGTA | 1.15 ± 1.1 | 1.34 ± 1.1 | 1.99 ± 1.1 |
| GCCCGT |  |  | 0.869 ± 0.63 |
| AGCGCT | 0.922 ± 0.52 | 0.773 ± 0.33 | 1.87 ± 0.74 |
| GAGCAA | 1.98 ± 0.29 | 2.27 ± 0.026 | 2.57 ± 0.78 |
| TAACAG |  | 1.33 ± 0.61 | 2.19 ± 0.52 |
| CCACAC | 1.98 ± 0.78 | 2.63 ± 0.9 | 3.97 ± 1.5 |
| CAGCAT | 2.79 ± 1.3 | 3.37 ± 0.47 | 4.04 ± 1.4 |
| ACCCTT | 2.26 ± 0.4 | 2.25 ± 0.33 | 3.38 ± 1.4 |
| TCGGCG | 1.25 ± 0.93 |  |  |
| GAAGTC |  | 1.09 ± 0.24 | 0.855 ± 0.63 |
| GACCGC | 2.62 ± 0.33 | 3.08 ± 1.4 | 5.26 ± 2.2 |
| GAGAAA | 2.38 ± 1.1 | 3.13 ± 0.99 | 3.4 ± 0.98 |
| GTAAGG |  |  | 0.965 ± 0.083 |
| AGTGAC | 1.67 ± 0.59 | 2.65 ± 1.3 | 3.45 ± 1.4 |
| GGATGC | 1.44 ± 0.27 | 1.71 ± 0.79 | 2.74 ± 1 |
| TTCGAA | 5.32 ± 1.2 | 7.22 ± 2.3 | 10.3 ± 4.3 |
| CAAATC | 1.67 ± 0.66 | 1.44 ± 0.26 | 1.67 ± 0.54 |
| GCTCTC | 1.58 ± 1.2 | 1.69 ± 0.14 | 1.93 ± 0.024 |
